In PMC4170573 (Nature communications, 2014):

B1: full length His-MAD2 (natural protein)
chain: not shown
B2: MAD2 L13A (natural protein)
chain: not shown
B3: MAD2 dimerization mutant, F141A (natural protein)
chain: not shown
B4: MAD2 dimerization mutant, R133A (natural protein)
chain: not shown

target: Flag-tagged full length WT1 protein (residue 1–449, including exon 5/17AA and KTS) (human, UniProt P19544 1-449); experiment: pull-down
Chain of UniProt P19544 (P19544 whole entry, change not shown): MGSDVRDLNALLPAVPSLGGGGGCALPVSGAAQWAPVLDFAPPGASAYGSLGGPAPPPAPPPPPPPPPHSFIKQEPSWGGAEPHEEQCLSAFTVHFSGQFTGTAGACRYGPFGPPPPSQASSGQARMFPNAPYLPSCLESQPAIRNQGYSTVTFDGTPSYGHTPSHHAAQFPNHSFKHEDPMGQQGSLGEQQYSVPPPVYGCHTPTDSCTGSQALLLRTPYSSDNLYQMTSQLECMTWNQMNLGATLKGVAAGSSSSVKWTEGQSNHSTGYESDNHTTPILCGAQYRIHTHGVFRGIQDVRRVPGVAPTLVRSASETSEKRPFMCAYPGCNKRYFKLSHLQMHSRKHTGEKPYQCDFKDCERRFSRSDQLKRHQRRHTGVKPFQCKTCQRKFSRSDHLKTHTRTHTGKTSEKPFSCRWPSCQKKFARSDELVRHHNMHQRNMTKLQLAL

binding result	Binder
binds	B1
binds	B2
binds	B3
binds	B4
